Laboratory results from PubChem BioAssay AID1476 (National Center for Advancing Translational Sciences (NCATS), 2009).
About 4,500 (2.2%) of roughly 200,000 compounds were called active. The shares of active, inactive and inconclusive entries below differ from those in the screen. The call rests on the fitted dose curve; in most records, active means well fitted inhibition curve with a large enough effect; inconclusive means small, poorly fitted or top-dose-only effect, or effect the other way; inactive means flat fitted curve, though single readings scatter. Where the call is inconclusive, the potency comes from a doubtful curve fit.
Further: nearly all actives have a fitted effect of over 40% in size.
Potency means the concentration at half of the fitted maximal effect; tags describe the fitted curve by direction and shape.
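Wherever max response, negative = inhibition is given: plate controls were enzyme without inhibitor for no effect and buffer without enzyme for full effect.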

Each compound was assayed against Cruzipain (Trypanosoma cruzi) (UniProt P25779) (assay: qHTS Assay for Promiscuous and Specific Inhibitors of Cruzain (without detergent)). Conditions: purified cruzain, Z-FR-AMC fluorescence, no detergent.
Sequence of UniProt P25779 (P25779 whole entry, looked up): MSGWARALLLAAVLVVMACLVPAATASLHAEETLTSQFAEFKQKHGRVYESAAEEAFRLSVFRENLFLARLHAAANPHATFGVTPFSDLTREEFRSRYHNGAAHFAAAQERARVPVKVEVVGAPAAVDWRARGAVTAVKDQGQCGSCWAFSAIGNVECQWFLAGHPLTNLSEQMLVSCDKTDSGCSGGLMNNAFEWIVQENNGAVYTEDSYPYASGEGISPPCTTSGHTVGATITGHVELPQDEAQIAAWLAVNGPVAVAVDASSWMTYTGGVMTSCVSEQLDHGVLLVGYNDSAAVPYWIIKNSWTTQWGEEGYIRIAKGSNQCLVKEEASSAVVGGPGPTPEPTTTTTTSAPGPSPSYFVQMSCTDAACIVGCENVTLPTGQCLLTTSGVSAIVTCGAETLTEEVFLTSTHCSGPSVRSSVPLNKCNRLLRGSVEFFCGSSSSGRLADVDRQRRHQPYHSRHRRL
How it was run: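 Detergent-free condition (0.00005% Triton X-100) in acetate buffer pH 5.5 with DTT. 1.5 nM enzyme and compound were pre-mixed 15 min, then 2 uM Z-FR-AMC substrate added; reaction progress from fluorescence change between first and third reads (60 s).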
With CCC1CCc2c(sc(NC(=O)C3c4ccccc4Oc4ccccc43)c2C#N)C1 (stereo unspecified) the Potency was active: 7.94 µM. C=CCOc1c(Br)cc(CNc2ccc(NC(=O)C(C)C)cc2)cc1OCC was tested, and the Potency was inconclusive: 1 µM [inhibitor, single point]. For Cc1cc(N)c2cc(OCCOc3ccc4nc(C)cc(N)c4c3)ccc2n1, the max response, negative = inhibition was inactive: -1.87%. In the case of CC1(C)S[C@@H]2[C@H](NC(=O)[C@@H](N)c3ccc(O)cc3)C(=O)N2[C@H]1C(=O)O, the max response, negative = inhibition is reported as inactive: -5.25%. For CCOC(=O)C1CCCN(C(=O)c2ccc3c(c2)N(Cc2cccc(Cl)c2)C(=O)c2ccccc2S3(=O)=O)C1 (stereo unspecified), the Potency was inconclusive: 39.8 µM [activator, single point]. With COC(=O)[C@@]1(Cc2ccccc2)[C@H]2c3cc(C(=O)N4CCCC4)n(CCN4CNCC4=O)c3C[C@H]2CN1C(=O)c1ccccc1 the Potency was inconclusive: 25.1 µM [activator, partial curve]. For CCOc1cccc(C2c3[nH]c4ccccc4c3CCN2C(=O)CCc2ccccc2)c1 (stereo unspecified), the Potency was inconclusive: 39.8 µM [inhibitor, single point]. For O=C(NCc1noc2ccccc12)Nc1ccc(F)cc1F, the max response, negative = inhibition was inactive: 2.56%. With CC(=O)N1CCC2(CCCN(C(=O)Nc3cccc(C#N)c3)C2)CC1 the max response, negative = inhibition was inactive: 3.44%. COc1ccccc1-c1cncnc1NCCN1CCOCC1 was tested, and the max response, negative = inhibition was inactive: -7.33%. With COc1ccccc1NC(=O)C1=C(C)NC2=C(C(=O)CC(c3ccc(OC)c(OC)c3)C2)C1c1coc2ccccc2c1=O (stereo unspecified) the Potency was inconclusive: 20 µM [activator, partial curve]. In the case of O=C(Nc1ccccc1N1CCOCC1)c1cccc([N+](=O)[O-])c1, the Potency is reported as inconclusive: 31.6 µM [inhibitor, single point]. With Nc1ccc(Oc2ccc3nc(-c4ccccc4)c(-c4ccccc4)nc3c2)cc1 the Potency was inconclusive: 39.8 µM [inhibitor, single point]. With COCCn1nc2cc(C(=O)NCC34CC5CC(CC(C5)C3)C4)ccc2c1OC the Potency was inconclusive: 39.8 µM [activator, single point]. Cc1ccc(Cl)cc1N1CCN(C(=O)c2cn(C)c3ccc(S(=O)(=O)N4CCC(C)CC4)cc3c2=O)CC1 was tested, and the max response, negative = inhibition was inactive: 2.58%. CCOc1ccccc1NC(=O)CSc1nnc(Cc2cccn2C)n1-c1ccc(F)cc1 was tested, and the Potency was inconclusive: 31.6 µM [activator, single point]. For Cn1c(=O)n(Cc2ccccc2)c(=O)c2c1nc(NCC1CCCO1)n2Cc1ccccc1 (stereo unspecified), the Potency was inconclusive: 39.8 µM [activator, single point]. CCOC(=O)c1c(NC(=O)C2c3ccccc3Oc3ccccc32)sc(C(C)=O)c1C was tested, and the Potency was inconclusive: 25.1 µM [inhibitor, single point]. In the case of N#CC1=C(N)Nc2nc3ccccc3n2C1c1ccc(F)cc1 (stereo unspecified), the Potency is reported as inconclusive: 39.8 µM [inhibitor, single point]. In the case of CC[C@@]1(O)C(=O)OCc2c1cc1n(c2=O)Cc2cc3ccccc3nc2-1, the Potency is reported as inconclusive: 3.98 µM [activator, full curve]. In the case of CCOc1ccc(S(=O)(=O)c2cn(Cc3ccc(C)cc3)c3ccc(OC)cc3c2=O)cc1, the max response, negative = inhibition is reported as inactive: 2%. CCCCc1nn2c(N)c(/C=C3\C=Nc4ccccc43)c(=O)nc2s1 was tested, and the Potency was inconclusive: 20 µM [activator, partial curve]. COc1ccc(S(=O)(=O)N(C(=O)c2ccco2)c2cc3sc(=O)oc3c3ccccc23)cc1 was tested, and the Potency was inconclusive: 31.6 µM [inhibitor, single point]. In the case of COc1ccc(C2=NN(C(=S)Nc3ccccc3)C(c3ccccc3)C2)cc1 (stereo unspecified), the Potency is reported as inconclusive: 39.8 µM [inhibitor, single point]. For CC(C)c1ccc(NCCC(=O)c2ccc(Br)cc2)cc1, the Potency was inconclusive: 39.8 µM [inhibitor, single point]. For Cc1cc(C)cc(NC(=O)C2CCCN(S(=O)(=O)c3cnc[nH]3)C2)c1 (stereo unspecified), the max response, negative = inhibition was inactive: -2.05%. For Cc1ccc(S(=O)(=O)n2cnc3cc([N+](=O)[O-])ccc32)c(C)c1C, the max response, negative = inhibition was inactive: -8.23%. For CCc1ccccc1NC(=O)C(=O)c1cc(C)n(-c2ccccc2F)c1C, the max response, negative = inhibition was inactive: -3.17%. O=C(Cc1ccccc1)Nc1nnc(-c2cccc([N+](=O)[O-])c2)s1 was tested, and the Potency was active: 15.8 µM. In the case of COCCCNC(=O)c1ccc(N2CCCC2)c(NS(=O)(=O)c2ccc(C)cc2)c1, the Potency is reported as inconclusive: 31.6 µM [activator, single point]. In the case of C=CCc1ccc(OCCOc2ccc(/C=N/n3cnnc3)cc2OCC)c(OC)c1, the Potency is reported as inconclusive: 7.94 µM [activator, full curve]. In the case of CCOC(=O)c1[nH]c(C)c(C(=O)OCC(=O)NC(=O)NC(C)(C)C)c1C, the Potency is reported as inconclusive: 39.8 µM [inhibitor, single point]. With O=C(NCC1CCCO1)C(c1cccs1)N(Cc1cccs1)C(=O)c1ccc(-c2ccccc2)[nH]1 (stereo unspecified) the max response, negative = inhibition was inactive: 18.2%. For COc1ccc(N2CCN(S(=O)(=O)/C=C/c3ccccc3)CC2)cc1, the Potency was inconclusive: 39.8 µM [inhibitor, single point]. For CC[C@H](C(=O)c1cccs1)C(O)(C(F)(F)F)C(F)(F)F, the max response, negative = inhibition was inactive: 0.654%. With CC(C)CCn1nnnc1C(c1ccc(F)cc1)N1CCN(C(=O)c2ccco2)CC1 (stereo unspecified) the Potency was inconclusive: 25.1 µM [activator, single point]. In the case of C=CCn1cc(C(=O)NCc2ccco2)c(=O)c2cc(S(=O)(=O)N3CCCCCC3)ccc21, the Potency is reported as inconclusive: 25.1 µM [activator, single point]. CCOCCCNC(=O)C(c1ccc(Cl)cc1)N(Cc1ccc2c(c1)OCO2)C(=O)c1ccccc1O (stereo unspecified) was tested, and the Potency was inconclusive: 39.8 µM [activator, single point]. CCOc1ccc(C(=O)N2CCN(Cc3cc(=O)n4nc(-c5cccc(OC)c5)sc4n3)CC2)cc1 was tested, and the Potency was inconclusive: 31.6 µM [activator, single point]. In the case of c1ccc2c(c1)[nH]c1c(NCC3CCCO3)ncnc12 (stereo unspecified), the Potency is reported as active: 25.1 µM. CCCCCC(=O)N1CCN(CCN=CC2=C(O)CC(c3ccc(OC)cc3)CC2=O)CC1 (stereo unspecified) was tested, and the Potency was inconclusive: 31.6 µM [activator, partial curve].
